The source of these data is US20220389066A1, “POLYPEPTIDES” (Affibody AB, priority 2019, published 2022).

The target of data set [1] is T1, HMGB1(disulfide) (Rattus norvegicus, UniProt P63159).
T1 construct: purchased HMGBiotech Srl, Milano, Italy
T1 sequence (P63159 1-215): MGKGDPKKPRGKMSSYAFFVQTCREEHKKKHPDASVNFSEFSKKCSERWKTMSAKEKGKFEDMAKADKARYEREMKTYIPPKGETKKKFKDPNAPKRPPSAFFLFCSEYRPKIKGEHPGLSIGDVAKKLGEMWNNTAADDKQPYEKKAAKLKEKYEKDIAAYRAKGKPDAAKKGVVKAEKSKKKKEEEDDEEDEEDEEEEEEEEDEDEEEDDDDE
Nature of the data set: Attana A200 biosensor binding analysis, HMGB1(disulfide). As to conditions: relevant kd (the most represented in %); non-reducing; captured on HSA; 1:1 or 1:2 model. Here is the method: Binding analysis: The Attana A200® biosensor was used to characterize interactions between the dimeric polypeptides (SEQ ID NO:38-48) and HMGB1(red) under reducing conditions and/or HMGB1(disulfide) under non-reducing conditions. The monomeric ZA3812 (SEQ ID NO:35) was included for comparison. The experiment was performed as a capture assay, in which HSA was immobilized on Attana's sensor chip Low-NonSpecific-Binding (LNB). Immobilization was performed using amine coupling. The instrument has two sensor surfaces and HSA was immobilized on both surfaces. Around 110 Hz of HSA was stably immobilized on the surfaces.
In the kinetic experiment, HBS-EP+/−2 mM DTT was used as running buffer and the flow rate was 25 μl/min at 22° C. In each cycle, one polypeptide was tested against one concentration of HMGB1. […] The analyte HMGB1(reduced) was diluted in HBS-EP+2 mM DTT within a concentration range of 1.33 to 21.4 μg/ml, and the analyte HMGB1(disulfide) was diluted in HBS-EP buffer within a concentration range of 0.62 to 10 μg/ml. Both analytes were subsequently injected for 84 s over both channel A and B, where channel B was used as a blank surface for curve subtraction. Buffer injections were also made for surface subtractions. After dissociation, the surfaces were regenerated with a 30 s injection of 100 mM HCl followed by a 30 s injection of 20 mM NaOH. Data was collected by Attester Software and subsequently processed in the Evaluation Software. To calculate the kinetic parameters (ka and kd) and affinity constant (KD), the experimental data were fitted using a 1:1 or a 1:2 binding model.

The nature of data set [2]: PK study in rat. As to conditions: i.v., 1.6 mg/kg. The format is in vivo, Sprague Dawley (SD) rats. The procedure: PK study in rat: Six female Sprague Dawley (SD) rats were divided into two groups for crosswise sampling. ZZA4263 was administered as a bolus injection through tail vein at 1.6 mg/kg (83 nmol/kg) at a slow and steady rate. The dosing volume administered was 1 ml/kg. Serum samples (0.2-0.3 ml) were collected from tail vein of each rat at time points 0 (predose), 30 min, 3 h, 24 h, 120 h, 216 h, 336 h and 456 h for group 1 and at time points 0 (predose), 5 min, 1 h, 8 h, 72 h, 168 h, 264 h, 408 h and 504 h for group 2. To prepare sera, the blood samples were left at RT for at least 30 min before centrifugation at 2000×g for 5 min. Sera were extracted and transferred into pre-labelled test tubes and stored at −20° C.
(§1) Quantification by ELISA: 96-well half area plates were coated with mouse anti-Z monoclonal antibody (2 μg/ml) in PBS (50 μl/well) and incubated overnight at 4° C. Plates were washed in PBST and blocked with PBSC for 1.5 h. ZZA4263 standard and serum samples were added to the plates (50 μl/well) and incubated for 1.5 h at RT. The ZZA4263 standard was diluted at 10 different concentrations between 1.3-50 μM in PBSC+1% mouse or rat serum pool. Serum samples were diluted 100× (minimal required dilution) in PBSC and titrated in 1:2 steps in PBSC+1% mouse or rat serum pool. […] The absorbance at 450 nm was measured in a 96-well plate reader (Victor3). […]

Data set [3] relates to CLP-induced sepsis. Nature of the data set: CLP-induced sepsis model in mice. Type of data set: in vivo, C57BL mice. The procedure: The animal study in C57BL mice was performed at Pharmaseed Ltd. (Israel) in compliance with The Israel Animal Welfare Act and following The Israel Board for Animal Experiments Ethics Committee approval # IL-19-1-49. On day 1, sepsis was induced following a modification of a previously published method of CLP (Ruiz et al (2016), Intensive Care Medicine Experimental 4:22-35). Sham operated control mice (n=10) were anesthetized and underwent laparotomy without puncture or cecal ligation. Sepsis induced mice were divided into groups of twenty. […] 0.14 mg/kg ZZA4263, 1.4 mg/kg ZZA4263, 25 mg/kg imipenem/cilastatin (antibiotics positive control) and vehicle (PBS), respectively, were administered i.p. to mice on day 2, 3, 4 and 5 (first dose 24 h after the surgery). […] Until termination of the study on day 7, mice were monitored with regard to morbidity and mortality (twice daily), Murine Sepsis Score (MSS; twice daily), body weight (once daily) and body temperature (twice daily).

Details of data set [4]: species or system C57BL/6J mice. As to conditions: mouse, in vivo, 1.6 mg/kg. Here is the method: PK study in mouse: Six C57BL/6J mice (Charles River) were divided into two groups for i.p. or i.v. administration. ZZA4263 was prepared in PBS and administered as a bolus injection through tail vein or i.p. at 1.6 mg/kg (83 nmol/kg) at a slow and steady rate. The dosing volume administered was 5 and 20 ml/kg for i.v. and i.p. respectively. Serum samples were collected from tail vein of each mouse at time points 0 (predose), 5 min, 8 h, 48 h and 120 h. To prepare sera, the blood samples were left at RT for at least 30 min before centrifugation at 2000×g for 5 min. Sera were extracted and transferred into pre-labelled test tubes and stored at −20° C.
as §1

Where [5] appears, read: 0.14 and 1.4 mg/kg i.p. on day 2, 3, 4 and 5.

B1: ZZA4263: heterodimer ZH27/ZH32, format Z(boxB)-L2-Z(boxA)-ABD (protein)
chain: AEAKYAKEAWLAEQEIWQLPNLTEAQFQAFILKLIDDPSQSSELLSEAKKLNDSQAPKGAPGGGGSTSAEAKYAKEDWDAFWEIIWLPNLTDAQQRAFIYKLEDDPSQSSELLSEAKKLNDSQAPKASGSLAEAKEAANAELDSYGVSDFYKRLIDKAKTVEGVEALKDAILAALP
modifications: Engineered HMGB1 binding polypeptide
notes: heterodimer ZH27/ZH32, format Z(boxB)-L2-Z(boxA)-ABD
For the molecule B1, the “kd HMGB1 (disulfide)” value in data set [1] came out at 0.00095 s⁻¹. For the same molecule, the “estimated t½” value in data set [2] is 25 to 36 h. In addition, in data set [3] (setting [5]), the “Murine Sepsis Score (MSS) compared to vehicle” value is recorded as “lower MSS” and the “survival rate compared to vehicle” value was “dose dependent increased survival rate”. The “Murine Sepsis Score (MSS) compared to imipenem/cilastatin” value in data set [3] (both dose groups, 0.14 and 1.4 mg/kg, imipenem/cilastatin 25 mg/kg) is “lower MSS compared to the group receiving positive control imipenem/cilastatin”. For the same molecule, the “survival rate compared to imipenem/cilastatin” value in data set [3] (higher dose group, 1.4 mg/kg, imipenem/cilastatin 25 mg/kg) is listed as “increased survival rate compared to imipenem/cilastatin”. In data set [4], the “bioavailability after i.p. administration” value is given as 67 % of i.v. administration and the “terminal half-life, i.p. compared with i.v.” value was “appears to be the same”.
